± gives the standard deviation of the averaged measurements. In all, about 33,000 sequences were measured (“E-score (dimensionless, -0.5 to 0.5)”: median about -0.046, highest 2% from about 0.36 on). Some of the results follow.
The sequences below were run on T1, SpTbr T-box DNA-binding domain (GST fusion) (assay: PBM E-score of 8-mer (E-score (dimensionless, -0.5 to 0.5)); Tbr is Tbrain of the sea star Patiria miniata (Pm) or the sea urchin Strongylocentrotus purpuratus (Sp); higher = stronger binding preference; most listed sequences are background and not binding sites). Settings: the construct has about 5 more residues each side.
T1 sequence: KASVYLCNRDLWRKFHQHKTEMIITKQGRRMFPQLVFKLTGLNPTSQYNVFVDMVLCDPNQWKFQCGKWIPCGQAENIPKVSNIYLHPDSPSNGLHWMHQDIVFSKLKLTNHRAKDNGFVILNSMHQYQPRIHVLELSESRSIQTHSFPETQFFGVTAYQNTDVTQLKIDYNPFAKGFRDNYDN
Procedure, shortened: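 Primer extension turned Universal Agilent oligonucleotide arrays double-stranded. They were incubated with 200 nM protein in PBS (pH 7.5); the protein was a GST-fused Tbr T-box DNA-binding domain expressed in BL21 E. coli at 20 °C and purified on glutathione. Every ungapped 8-mer was scored from the scanned, quantified probe intensities, and the Universal PBM Analysis Suite gave each an enrichment E-score averaged over duplicate arrays.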

Row | Sequence | PBM E-score of 8-mer
1 | GGACTCCC | -0.203 ± 0.009
2 | AAATACAG | -0.0946 ± 0.035
3 | GATATGAC | -0.0904 ± 0.026
4 | AATGTGGT | 0.0565 ± 0.051
5 | CGGACTCA | -0.0648 ± 0.1
6 | TAACAAGA | 0.0533 ± 0.063
7 | AATAACCC | -0.109 ± 0.11
8 | ATGCAGTG | -0.038 ± 0.026
9 | AATTCGCT | -0.0718 ± 0.05
10 | AGCGTGAG | 0.28 ± 0.05
11 | ACCTTCCA | 0.0669 ± 0.013
12 | AGGGCTTA | -0.209 ± 0.034
13 | ACGACCTA | 0.0969 ± 0.063
14 | CGTCACTC | 0.232 ± 0.011
15 | TCACGCAA | 0.32 ± 0.023
16 | AGGGGCTA | -0.079 ± 0.035
17 | CGTGCCAA | 0.306 ± 0.03
18 | AGTGGTGG | 0.0787 ± 0.014
19 | GAGCTGTA | -0.0913 ± 0.024
20 | CCCTGTTA | 0.0927 ± 0.079
21 | GGCGGCAC | 0.203 ± 0.034
22 | CATGTGCG | 0.269 ± 0.025
23 | AAATAAAT | -0.135 ± 0.015
24 | TATAGATA | -0.198 ± 0.026
25 | CTGGGTCA | -0.0604 ± 0.044

Row | Sequence | PBM E-score of 8-mer
26 | ATTGTAAA | 0.0303 ± 0.04
27 | ATTCAACG | 0.00085 ± 0.022
28 | ACCTATAC | 0.0942 ± 0.016
29 | ATGGACTC | -0.156 ± 0.017
30 | GGCCTGCA | -0.247 ± 0.045
31 | ATACTTAG | -0.152 ± 0.025
32 | AGTTTTCG | 0.115 ± 0.0031
33 | GGGGCAAC | -0.169 ± 0.047
34 | CCCTCATA | 0.0313 ± 0.072
35 | CTAAACGC | -0.00247 ± 0.068
36 | GCATGGGC | -0.0364 ± 0.0065
37 | ATTTCTGA | -0.236 ± 0.077
38 | TACCACCA | 0.0959 ± 0.014
39 | AAGCCCCC | -0.305 ± 0.025
40 | AGACTAAC | 0.0868 ± 0.02
41 | ACCGTAAC | -0.00357 ± 0.013
42 | AACCAGAT | -0.0824 ± 0.0082
43 | CGGACCAA | -0.345 ± 0.038
44 | GGGAGTTA | -0.0251 ± 0.025
45 | CGGGTCTC | -0.0472 ± 0.0069
46 | TGCTCGAA | -0.2603 ± 0.0024
47 | CCCTAAAC | -0.153 ± 0.041
48 | CGCGAGCA | 0.275 ± 0.036
49 | ATAGAATG | -0.237 ± 0.044
50 | GTTTCTGA | -0.137 ± 0.012

Row | Sequence | PBM E-score of 8-mer
51 | CATGACTA | -0.196 ± 0.068
52 | AATTAATG | -0.238 ± 0.036
53 | ACCTATCC | -0.0393 ± 0.065
54 | CACTTAGC | 0.174 ± 0.056
55 | ACTTGTGG | 0.205 ± 0.00054
56 | AAATTTTC | -0.0749 ± 0.026
57 | CCTGTTCA | 0.101 ± 0.00044
58 | AAGGATCG | -0.164 ± 0.067
59 | CCCACAAG | -0.153 ± 0.035
60 | CAAGGAGC | -0.195 ± 0.082
61 | AAATGACA | 0.151 ± 0.004
62 | ATTCCTGA | -0.225 ± 0.011
63 | CTGCTACA | -0.0452 ± 0.072
64 | CGCGGAGA | 0.00232 ± 0.0055
65 | CCGTGTCA | 0.176 ± 0.013
66 | TCGACTAA | -0.0107 ± 0.036
67 | CAAACTTC | -0.197 ± 0.064
68 | AGGTACTA | -0.105 ± 0.09
69 | CCCTGGGC | -0.111 ± 0.013
70 | CCGGGGCC | -0.153 ± 0.042
71 | CCCCCCCC | -0.0653 ± 0.059
72 | TCGAGACA | -0.0938 ± 0.056
73 | AAAACAGC | 0.152 ± 0.041
74 | CCCCGGTA | -0.125 ± 0.033
75 | CACCCCCC | 0.184 ± 0.003

Row | Sequence | PBM E-score of 8-mer
76 | AGTATCCG | -0.347 ± 0.051
77 | ATATCCGA | -0.0578 ± 0.011
78 | ACGGAGTC | 0.00717 ± 0.046
79 | AACCCTAG | 0.146 ± 0.034
80 | TGTCGCAA | 0.207 ± 0.026
81 | GTCCGATA | -0.0395 ± 0.019
82 | CACGGACC | -0.133 ± 0.031
83 | CCGTAGTC | -0.182 ± 0.055
84 | GAATGAGC | -0.191 ± 0.038
85 | GAGCTGGC | -0.0512 ± 0.033
86 | GAGGACGC | 0.0247 ± 0.027
87 | ATTGTGGC | 0.00409 ± 0.062
88 | AAACGACC | 0.0563 ± 0.019
89 | AAACCTCA | -0.187 ± 0.087
90 | CGTCCAGC | -0.207 ± 0.04
91 | GCATGAGC | -0.0917 ± 0.011
92 | ACACAGGA | -0.168 ± 0.018
93 | GCTCCAAA | -0.203 ± 0.071
94 | ATTAATAA | -0.0848 ± 0.078
95 | ATCTCCGG | 0.0811 ± 0.031
96 | ATCCTATG | -0.248 ± 0.013
97 | AACGAGCA | 0.0866 ± 0.091
98 | ATTTAAGG | -0.135 ± 0.075
99 | TGAGGGAA | -0.0735 ± 0.021
100 | AATCATGG | -0.0493 ± 0.023

Row | Sequence | PBM E-score of 8-mer
101 | AATAGTCA | 0.0181 ± 0.026
102 | AGCAGGCC | -0.13 ± 0.05
103 | AACGTCTC | 0.031 ± 0.02
104 | CTACGCTA | -0.0759 ± 0.0034
105 | ATCTCGAA | -0.155 ± 0.035
106 | ATTTCTGG | -0.13 ± 0.0057
107 | GGAGGATA | -0.24 ± 0.02
108 | CTGTGAGC | 0.225 ± 0.0048
109 | TACACGTA | 0.0515 ± 0.041
110 | AATGAGGT | 0.178 ± 0.073
111 | CCCTACAC | 0.0736 ± 0.018
112 | CGTCATCA | 0.227 ± 0.019
113 | ATAATAGC | -0.085 ± 0.017
114 | CAACGCAC | 0.137 ± 0.024
115 | CTAGTCTC | -0.0209 ± 0.025
116 | CGTGGAAC | 0.157 ± 0.043
117 | ATTGTGGA | 0.0374 ± 0.11
118 | ACGTGAAC | 0.126 ± 0.031
119 | CAGATGCC | -0.248 ± 0.044
120 | CCATTCAG | 0.0504 ± 0.014
121 | GACGGGGA | -0.00484 ± 0.006
122 | CGCGGGCC | -0.00492 ± 0.0016
123 | ATGTAGTC | -0.271 ± 0.04
124 | CACTACAG | 0.00822 ± 0.021
125 | GGTAACCA | -0.0926 ± 0.038

Row | Sequence | PBM E-score of 8-mer
126 | CGGAGTAC | -0.141 ± 0.013
127 | GCTTTGAA | -0.185 ± 0.01
128 | TGATCCCA | -0.00177 ± 0.0032
129 | AAAAGCCA | -0.154 ± 0.04
130 | CCCGCAGG | -0.0545 ± 0.0061
131 | TAGTACAA | -0.0337 ± 0.046
132 | CCCGTGAG | -0.0328 ± 0.0095
133 | CACTTCTA | 0.304 ± 0.022
134 | CTGATCAC | 0.202 ± 0.01
135 | AAGAACGA | -0.228 ± 0.0065
136 | CATCGGGG | -0.0653 ± 0.086
137 | AAAGGCTG | 0.0423 ± 0.004
138 | CGCACTTA | 0.329 ± 0.0023
139 | TCGGTACA | -0.161 ± 0.11
140 | ACGTCAGG | -0.127 ± 0.05
141 | AGGTCCTA | -0.0526 ± 0.058
142 | GCTTGGTA | -0.117 ± 0.011
143 | CATGGTAC | -0.0349 ± 0.043
144 | GGATGGGA | -0.354 ± 0.037
145 | ACGTCAAG | 0.0322 ± 0.037
146 | AAGGCACA | -0.16 ± 0.04
147 | GGTCATAA | -0.216 ± 0.045
148 | CCTCCCCC | -0.0238 ± 0.056
149 | CATCGAGG | -0.0571 ± 0.0048
150 | AGTGCCCC | -0.185 ± 0.025

Row | Sequence | PBM E-score of 8-mer
151 | GTGCTCAA | -0.0324 ± 0.11
152 | ACCCACTA | -0.00841 ± 0.12
153 | TAGGGTAA | -0.151 ± 0.034
154 | ACGTGAAA | 0.121 ± 0.014
155 | CGCCATTC | 0.21 ± 0.011
156 | ATCATGAT | -0.0317 ± 0.029
157 | GGCGCGAC | 0.369 ± 0.017
158 | AGAAAGTA | -0.102 ± 0.082
159 | CCGTGCAC | -0.0263 ± 0.1
160 | AAATGCCA | 0.00246 ± 0.043
161 | ACGTGTAA | 0.333 ± 0.053
162 | AAGCGCAG | 0.0307 ± 0.015
163 | CAAGGACC | -0.213 ± 0.012
164 | ATCCTCCC | -0.04 ± 0.03
165 | AGGCGGGG | 0.0193 ± 0.05
166 | CATTACCA | -0.0474 ± 0.028
167 | TCTCTCCA | -0.072 ± 0.044
168 | TCCCAGAA | -0.0607 ± 0.066
169 | CCTTACTA | 0.0201 ± 0.027
170 | ACACTGTA | 0.172 ± 0.036
171 | ATTATTTA | -0.104 ± 0.043
172 | ATATTCGA | -0.0272 ± 0.061

Source: the supplement of paper PMC4166925
